Experimental data: PubChem BioAssay AID686979 (National Center for Advancing Translational Sciences (NCATS), 2013)
In all, about 420,000 compounds went through this assay and about 50,000 (12%) were called active. Inconclusive means that the source gave no clear call. Such entries were picked first, then a sample of the others. Calls follow the shape of the dose curve; as a rule, active = well fitted inhibition curve with a large enough effect; inconclusive = small, poorly fitted or top-dose-only effect; inactive = flat fitted curve, though single readings scatter. Potencies of inconclusive entries are left out as doubtful fits.

Assay: qHTS for Inhibitors of human tyrosyl-DNA phosphodiesterase 1 (TDP1): qHTS in cells in presence of CPT; also: nearly all actives have a fitted effect of over 55% in size
Conditions: chicken DT40 Tdp1-/-;hTDP1 cells + 20 nM CPT, ATP luminescence, 48 h; activity change, negative = growth inhibition: at 46.2 µM (top of the series) unless noted
Method in brief: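 Chicken DT40 Tdp1-/- cells complemented with human TDP1, 400 cells/well, exposed to compounds plus 20 nM camptothecin for at least 48 h at 37 C; viability read as ATP content by CellTiter-Glo luminescence.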
% is scaled to controls: 0 for no effect and ±100 for the full control effect; potency is read from the fitted curve at half-maximal effect; tags tell the direction and shape of the fitted curve.

Compound	activity change, negative = growth inhibition	Potency
CCc1nn(CC(=O)NCc2cccc(OC)c2OC)c(=O)c2cc3occc3n12	inactive: -14.8%	–
CCc1ccc(C(=O)NNC(=O)OC)cc1	–	inconclusive [inhibitor, single point]
C[C@H]1CN([C@@H](C)CO)S(=O)(=O)c2ccc(Br)cc2O[C@H]1CN(C)S(=O)(=O)c1ccccc1	–	active: 16.4 µM
CCOC(=O)c1ccc(NC(=S)N(Cc2cccnc2)Cc2ccco2)cc1	inactive: -2.78%	–
CCOc1ccc(S(=O)(=O)n2cnc3ccccc32)cc1	–	inconclusive [inhibitor, single point]
CSc1ccc(CN2C(=O)C(C)ON=C2c2ccccc2F)cc1 (centres undefined)	–	inconclusive [inhibitor, single point]
CCOC(=O)C1(Cc2cccc(Cl)c2)CCCN(C(=O)c2cc(C(C)C)nn2C)C1 (centres undefined)	–	active: 14.6 µM
CCOc1ccccc1NC(=O)NC(=O)N(C)S(C)(=O)=O	inactive: -9.55%	–
CNc1ncnc2c1ncn2[C@H]1CN(Cc2cccnc2)C[C@@H](CO)O1	inactive: -9.73%	–
COc1ccc(NC(=O)C2=C(C)Nc3nc(SC)nn3C2c2cc(OC)ccc2OC)cc1 (centres undefined)	inactive: 4.26%	–
COc1ccc(N2CCN(CCCn3cnc4c(SC)ncnc43)CC2)cc1	–	inconclusive [inhibitor, single point]
CCn1c(C)nc2cc(C(=O)N/N=C/c3ccc(O)cc3)ccc21	inactive: 0.254%	–
Cc1ccc(C(=O)COC(=O)C(Cc2c[nH]c3ccccc23)NC(=O)c2ccc(Br)cc2)cc1 (centres undefined)	–	inconclusive [inhibitor, single point]
O=C(COC(=O)CCNS(=O)(=O)c1ccccc1F)Nc1nnc(-c2ccccc2)o1	inactive: 4.51%	–
O=C(O)c1cc(C(F)(F)F)nc2c(C(F)(F)F)cccc12	inactive: -16.6%	–
CCC1(CC)NC(=O)N(CC(=O)Nc2ccc(-n3cnnn3)cc2)C1=O	inactive: -3.32%	–
CCOc1ccc(NS(=O)(=O)c2ccc(NC(=O)[C@@H]3CCCC[C@@H]3C(=O)O)cc2)cc1	inactive: -17.5%	–
CCN(CC)CCCOc1cc2nc(N3CCCN(C)CC3)nc(NC3CCN(C)CC3)c2cc1OC	–	inconclusive [inhibitor, single point]
COc1ccc(NC(=O)c2c(C)oc3c2CCCC3)cc1	–	inconclusive [inhibitor, single point]
C/C(=N/NC(=O)c1cc(C2CC2)[nH]n1)c1cccs1	inconclusive: -35.3% [inhibitor]	–
Cc1ccnc(NC(=O)Nc2ccc(Br)cc2Cl)c1	–	inconclusive [inhibitor, partial curve, poor fit]
COc1ccc(OC)c(N=c2ssnc2Cl)c1	–	active: 11.6 µM
O=C(CSc1nc2ccccc2n1Cc1cccc(Cl)c1)N1CCN(c2ccc(F)cc2)CC1	–	inconclusive [inhibitor, partial curve]
COC(=O)C1=C(C)N(c2cccc(Cl)c2)C(=O)C1	–	inconclusive [inhibitor, single point]
COC(=O)c1c(NC(NC(=O)C(C)C)C(Cl)(Cl)Cl)sc2c1CCC2 (centres undefined)	–	active: 16.4 µM

Compound	activity change, negative = growth inhibition	Potency
COc1cc2c(cc1OC)C(C)N(C(=O)/C=C/c1cc(OC)c(OC)c(OC)c1)CC2 (centres undefined)	–	active: 14.6 µM
O=S(=O)(NCc1ccc2c(c1)OCO2)c1c(F)cc(F)cc1Br	inactive: -24.5%	–
COc1ccc(-c2nc3scc(-c4ccccc4)n3n2)cc1	–	inconclusive [inhibitor, single point]
O=C(O)c1ccccc1-c1ccccc1C(=O)Nc1cccc(-c2nc3ccccc3o2)c1	inactive: -16.5%	–
CCOC(=O)C1(C)CCCN(C(=O)c2ccc(OC)cc2OC)C1 (centres undefined)	inactive: 5.92%	–
CCCn1nnc(NC(=O)C(c2ccccc2)c2ccccc2)n1	inactive: -19%	–
Cc1sc(NC(=O)c2ccccc2F)c(CN2CCCCC2)c1C	–	active: 20.6 µM
Cc1ccc(N)cc1-n1c(C)ccc1C	–	inconclusive [inhibitor, full curve, poor fit]
N/C(=N\OC(=O)c1ccco1)c1ccc(Cl)cc1	inactive: -12.6%	–
O=C(NCc1nc2ccccc2[nH]1)C1=C[C@@H](c2ccc(C(F)(F)F)cc2)C[C@@H](OCc2ccc(CO)cc2)O1	–	inconclusive [inhibitor, single point]
O=C(Nc1ccc(Cl)cc1)c1ccc2c(c1)N(Cc1ccccc1)C(=O)c1ccccc1S2(=O)=O	–	active: 16.4 µM
Cc1cc2oc(C(=O)Nc3cccc(-c4nc5ccccc5o4)c3)c(C)c2cc1Cl	–	inconclusive [inhibitor, partial curve, poor fit]
COc1nccnc1NS(=O)(=O)c1ccc(NC(=S)NC(=O)c2cccc(F)c2)cc1	inactive: 5.44%	–
COc1ccc(OC)c(CNC(=O)Cn2nc(C)c3c(C)n(-c4ccccc4)nc3c2=O)c1	–	inconclusive [inhibitor, single point]
C=C(C)C(=O)OC1(C(F)(F)F)Oc2cc(C)ccc2NC1=O (centres undefined)	–	active: 16.4 µM
Cc1ccc(S(=O)(=O)NC(=O)C2(C)CCN2C(=O)Cc2cccs2)cc1 (centres undefined)	inactive: 0.389%	–
COc1cc2c(cc1OC)CN(C(=O)COc1ccccc1C#N)CC2	–	active: 20.6 µM
C=CCCN([C@H](CO)Cc1ccccc1)S(=O)(=O)c1ccccc1Br	–	inconclusive [inhibitor, partial curve, poor fit]
COC(=O)[C@@]1(Cc2ccc(F)cc2)[C@H]2c3cc(C(=O)N(C)C)n(Cc4cc(F)cc5c4OCOC5)c3C[C@H]2CN1C(=O)c1ccccc1	–	inconclusive [inhibitor, single point]
CCn1c(SCC(=O)Nc2ccccc2C(=O)OC)nnc1-c1cccc(C)c1	–	inconclusive [inhibitor, single point]
CC(=O)Nc1ccc(NC(=O)c2ccccc2Br)cc1	inactive: 4.27%	–
CCOC(=O)c1ccc(OCCOc2cccc(C)c2)cc1	inactive: -5.53%	–
COc1ccc(NC(=O)Cn2c(=O)n(Cc3ccco3)c(=O)c3sc4ccccc4c32)cc1Cl	inactive: -2.92%	–
Cc1cc(C)c(NS(=O)(=O)c2ccc3c(c2)oc(=O)n3C)c(C)c1	–	inconclusive [inhibitor, single point]
